Data as given in PMC12136788.
Some of the results follow.

B1: chr5:69964302:69964303:+_ENSMUSG00000029208_ENSMUST00000154728|mus_mus|motif|central (ssRNA)
RNA: GGGAGUUCUACAGUCCGACGAUCCAGUAUCAAGACUUUUUCUUGGAGUAAUGUAUUUUUCAGUUUGUUAUGAACAUGAAACGGAUCCAUUUAUUAGCUGUGUCAUUUAGGUAUGUUUAGUUAAUAGCUUCUAAUUUAUUAACACAACAGAGGAUUGAGCAUCA
B2: chr19:8913615:8913616:-_ENSMUSG00000071658_ENSMUST00000096259|mus_hu|mus_mus_mus_hu_False|88_98 (ssRNA)
RNA: GGGAGUUCUACAGUCCGACGAUCAGGGUACCAAAACACCCUGCCUCAGAUAGGUGCCCCACCCAGUAGGGAGUUGCAGCUGAAAGUAUCUGAUGCAGAAGCAGUGACUAUACGAAAGGAGGCCCCUGGGGAGGGCCAGGCCAGCAACAGAGGAUUGAGCAUCA
B3: chr16:64763996:64763997:-_ENSMUSG00000059920_ENSMUST00000076991|mus_mus|FALSE|FALSE (ssRNA)
RNA: GGGAGUUCUACAGUCCGACGAUCAGGCUUUUUAAGAAUUCAAAAAUUCAAUAUGAAAGAUAGCUUUUUAAAAAACCUUUCUAUAGCAGUAACACAAAUAGCCCAUGGAUUGUUUUUAAUCUUAUGCUUUUCUCAGGGCAUUUACAACAGAGGAUUGAGCAUCA
B4: chr3:9412954:9412955:+_ENSG00000134077_ENST00000452837|hu_mus|hu_hu_hu_mus_False|68_68 (ssRNA)
RNA: GGGAGUUCUACAGUCCGACGAUCGGUUGAUAUCUCUUCUUUGAUGGCUGGAUUUUCAUAAUAGUCCAAGAUAUGAGAAUCUGAAGUGCUGCUGGCAUGCUUUUUCUUACCAUCUUUCUCAUCUGCUUUGUCUCCUUGUCCACACAACAGAGGAUUGAGCAUCA
B5: chr2:163839828:163839829:+_ENSMUSG00000018326_ENSMUST00000018470|mus_mus|FALSE|FALSE (ssRNA)
RNA: GGGAGUUCUACAGUCCGACGAUCGGAGUUGGACACCGUGGUUUGUUUAUUUUCUCCGGAUGCAACUUCAGAAAGAUACCUAAAGUAGUCUCCUUUCAUUUUUAAGUAGAACACUUUGCUUUCUGCCUGGGUGGCAUUGAGAAUCAACAGAGGAUUGAGCAUCA
B6: chrX:71549762:71549763:+_ENSMUSG00000019087_ENSMUST00000019231|mus_mus|mus_mus_mus_hu_False|18_38 (ssRNA)
RNA: GGGAGUUCUACAGUCCGACGAUCAAACCCGUGUACUUCUUAUUGUUAGCACAACAUCACCAGAAAACGAUAACGACAGCCAAGCAGGACAGACAGUCAAGUAGUCUUUCCACACUCCGCAAAUUCAGGAGCCCUAUAACCUUACAACAGAGGAUUGAGCAUCA
B7: chr4:54876292:54876293:-_ENSG00000109220_ENST00000263921|perfect_dup|motif|central (ssRNA)
RNA: GGGAGUUCUACAGUCCGACGAUCCUAUAAAUAAAGCAAAUGCUAAUCUGGUCGAAAAAUCGGUGUCUUUGGUAAAAAUUCGGUGAGGAUGACAUAUUCCAUCAUGUUGUUCGUUUCACAUUUCCUUUUGCUCAGUCUCCAGUGCAACAGAGGAUUGAGCAUCA
B8: chr13:48835921:48835922:+_ENSG00000136156_ENST00000378565|hu_mus|FALSE|FALSE (ssRNA)
RNA: GGGAGUUCUACAGUCCGACGAUCAUAUGGGCUAUACAAAUUAGUAACAUGAGUUGCUUCUUAAAUUCCAAACAUUUGUCUAAAAUCUUAUUACAGCAGAGGCCUAGGAUAUUAAAACAUCAAGGCUGAAAUCCUCUAAAGUAGCAACAGAGGAUUGAGCAUCA
B9: chr1:127300101:127300102:-_ENSMUSG00000026341_ENSMUST00000027579|perfect_dup|motif|central (ssRNA)
RNA: GGGAGUUCUACAGUCCGACGAUCGGUGUACUGUUUGAUCCACUUUGACCCAUCGGUGUCAUACUUGUUAAACUCUUUUACGGAAUCUGGGCAGACAUAACUGUAGCGUUCCUUCACUGCUUUCGCAGUUUCCAAGGACUGCUCCAACAGAGGAUUGAGCAUCA
B10: chr8:117878989:117878990:-_ENSG00000164754_ENST00000297338|hu_hu|hu_hu_hu_mus_True|38_48 (ssRNA)
RNA: GGGAGUUCUACAGUCCGACGAUCCCAGAGGCCCUCGUUUACUGAGGACAAAAUGUGCGUAGAACAUUUUUCUUAUUUGCUAUGAAAACAGAAGAAAACCUUGCUCUGGCGGGGAGCCGGGAGGGGUGGGUGGCCCGGGGAGGGCAACAGAGGAUUGAGCAUCA
B11: chr11:87793471:87793472:-_ENSMUSG00000020483_ENSMUST00000020775|mus_hu|FALSE|FALSE (ssRNA)
RNA: GGGAGUUCUACAGUCCGACGAUCUGGACUUGAAAAUAAAAGAAUAAGCUGGAUCCCCCACCCCCCCACAUUGUCAACCCUACACGAGAGUUUUGAAGGCGACUCAUGAAAAUCAGCAGCUCAAACGGCAAUGACCACCCCACCCAACAGAGGAUUGAGCAUCA
B12: 15823076_15823196_455_5pUTR_ENSMUSG00000020601_ENSMUST00000020922|mouse|control|control (ssRNA)
RNA: GGGAGUUCUACAGUCCGACGAUCGAGUAGGGAGUGCGCGGAGUAGGGCAGGCACAGGUACCGCGACAAAGCCCAAGGCAGAGCCCGCGCGGUCAGCACUAGCUCUUGCUGUCGCUGCUCACGUCCCAGAUCCUCCUCCGAUGACAACAGAGGAUUGAGCAUCA
B13: chr1:29344795:29344796:+_ENSG00000159023_ENST00000356093|hu_hu|motif|central (ssRNA)
RNA: GGGAGUUCUACAGUCCGACGAUCGAGUUCUGGGUCGUAGUCUCCCAGUUCAGACUGGAUGGUGUAAGAACCUAAUAAUGCGGAGGUUGCAAAGGAACAGGGCAGACGUCCUGCAACUAUGUCCUGCCGAAGCUGAAGACAUAACAACAGAGGAUUGAGCAUCA
B14: chr5:128448638:128448639:+_ENSG00000066583_ENST00000173527|hu_mus|hu_hu_hu_mus_False|48_78 (ssRNA)
RNA: GGGAGUUCUACAGUCCGACGAUCGGCACUCGCCUUAAUUAGGUUCUGAAUUUCCUUGAAUUUUGGAUGGUCUUUGUCAGCCACCAGCUGAAGCAGAACAGCCUCACUAGUGGUCACGAUGAUCCCAGUGCGGGCAAGACGCUCCAACAGAGGAUUGAGCAUCA
B15: 30140768_30140888_1046_CDS_ENSMUSG00000075419_ENSMUST00000100219|mouse|control|control (ssRNA)
RNA: GGGAGUUCUACAGUCCGACGAUCCACACAGGUCAUGAGGUGGAAGAAGAUGGAAGAGGCCCAGGUGCCUGAAUCCAUGAAGACAAAGAGGGUGCUGAAAAAGACACCCAUGAGCACCAUCCCUACCACCACCACCAACAGGAACAACAGAGGAUUGAGCAUCA
B16: chr19:55172049:55172050:-_ENSMUSG00000024978_ENSMUST00000061856|mus_mus|FALSE|FALSE (ssRNA)
RNA: GGGAGUUCUACAGUCCGACGAUCGGUGUGUUUACAUCGGCCAAGGCUGUAUUCCGAUGAACUGGGCAGAUAAGAAACGUCUAUUGUGCCAACUGUCACUGAAGACUCCUCCAUGGCAGAACGUGCAAGUCCCAAACCAUGUGCCAACAGAGGAUUGAGCAUCA
B17: chr1:45868982:45868983:+_ENSMUSG00000025995_ENSMUST00000027139|mus_mus|FALSE|FALSE (ssRNA)
RNA: GGGAGUUCUACAGUCCGACGAUCAGAAGUACAGAACAAAUCUCCUGCAGGUGAGACAGAGAUGUGCUCAAUAGAAGAUCCUAAUCGAGGAAGAAACUCUUUGUUCUUCUCUGAUCCAUCUCGCCACUCCACAAGCACACACUCCAACAGAGGAUUGAGCAUCA
B18: chr1:127303955:127303956:-_ENSMUSG00000026341_ENSMUST00000027579|perfect_dup|motif|central (ssRNA)
RNA: GGGAGUUCUACAGUCCGACGAUCUAUUACCGUACCGGUCAACGUCCGUUCUCCUACUUGUCUUGAGGUCCAAGAUGCAGCGGAGGCAAGAACAGCCUGCACAGCAAUGUACAAGCCUGGAACAUUGAAGGACUCAAACAUUAUCAACAGAGGAUUGAGCAUCA
B19: 101936383_101936503_585_CDS_ENSG00000164924_ENST00000353245|human|control|control (ssRNA)
RNA: GGGAGUUCUACAGUCCGACGAUCUUUCUCUGGGGAGUUCAGAAUCUCAUAAUAGAACACAGAGAAGUUAAGGGCCAGACCCAGUCUGAUAGGAUGUGUUGGUUGCAUUUCCUUUUUGCUGAUUUCAAAAGCUUCUUGGUAUGCCAACAGAGGAUUGAGCAUCA
B20: chr10:41618152:41618153:+_ENSMUSG00000038332_ENSMUST00000041438|mus_hu|FALSE|FALSE (ssRNA)
RNA: GGGAGUUCUACAGUCCGACGAUCCGGCAUCUCAUCCACACUGUGAUUGCCAUUUGUAAUGUCACAGAUGCAGUAGUUGCUAACAGAAGGAGGUCUGAAUGUGUGGCCACCAUCACAAUGAAUUUCUGGACUGAUUCCACAGCCCAACAGAGGAUUGAGCAUCA
B21: chr3:121486967:121486968:-_ENSMUSG00000028127_ENSMUST00000029770|mus_mus|FALSE|FALSE (ssRNA)
RNA: GGGAGUUCUACAGUCCGACGAUCUCCAAUUGCACUUGUUAACUUGAAAAUAUAUAAAACUAUGUCUAAAAAUGGCUUACUAAGAUUUGAAUACAGAUCGACUACACUGUUACAAAAUUUUUCUACAUCCUGUGUAAGCAGCUGCAACAGAGGAUUGAGCAUCA
B22: chr4:56291666:56291667:+_ENSG00000134851_ENST00000381334|hu_mus|motif|central (ssRNA)
RNA: GGGAGUUCUACAGUCCGACGAUCAAAAUACAGUGUUUCCCAUUACUUUUAGUUGUAAUGUACACUAUGUACAGAAAAGAGUUGCCGGUCUUAAGCUGAAUACUGAAGAACAGCUUGUUAAAAACCAGACUCUGGACUUAUAAACAACAGAGGAUUGAGCAUCA

Each binder was assayed against T1, UNK ZnF1-3 (human, UniProt Q9C0B0 31-174) (assay: nsRBNS (natural sequence RNA bind-n-seq); RBNS binding buffer (assumed for nsRBNS): 25 mM Tris pH 7.5, 150 mM KCl, 3 mM MgCl2, 0.01% Triton X-100, 500 ug/ml BSA, 20 U/ml SUPERase-In, 4 C; UNK is unkempt and MSI1 is Musashi-1; names of the RNAs are library labels; protein concentration not given here; high values mean tight binding).
T1 sequence: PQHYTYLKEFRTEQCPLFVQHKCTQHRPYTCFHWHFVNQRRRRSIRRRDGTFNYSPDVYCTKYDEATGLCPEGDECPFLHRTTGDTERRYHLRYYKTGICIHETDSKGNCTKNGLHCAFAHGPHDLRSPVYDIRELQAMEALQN
Work on B1 yielded a binding signal of 0.881 enrichment R. With B2 the binding signal was 1.41 enrichment R. B3 showed a binding signal of 1.02 enrichment R. In the case of B4, the binding signal is reported as 0.539 enrichment R. Binder B5 has a binding signal of 0.646 enrichment R. In the case of B6, the binding signal is reported as 1.03 enrichment R. B7 showed a binding signal of 1.46 enrichment R. In the case of B8, the binding signal is reported as 0.869 enrichment R. For B9, the binding signal was 0.435 enrichment R. Work on B10 yielded a binding signal of 1.37 enrichment R. Binder B11 has a binding signal of 2.16 enrichment R. For B12, the binding signal was 0.308 enrichment R. B13 was tested, and the binding signal was 0.747 enrichment R. In the case of B14, the binding signal is reported as 0.687 enrichment R. For B15, the binding signal was 1.87 enrichment R. For B16, the binding signal was 0.768 enrichment R. In the case of B17, the binding signal is reported as 0.962 enrichment R. B18 gave a binding signal of 0.898 enrichment R. Binder B19 has a binding signal of 1.23 enrichment R. Work on B20 yielded a binding signal of 1.1 enrichment R. For B21, the binding signal was 1.81 enrichment R. Work on B22 yielded a binding signal of 0.563 enrichment R.
